# From PubChem BioAssay
# Inconclusive results, whose numbers are uncertain, are shown with a selection of clear calls. Calls of active or inactive are those of the source.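 Rule for the calls: active = fitted half-maximal concentration for viability loss no higher than twice the top valid dose, in every repeat run; inconclusive = repeat runs disagree, flat partial loss, or poor curve fit; inactive = the rest.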
# Assay: IOSE-T80 viability loss, PAX8-independent line – cell-based, cherry-pick, selectivity assay for PAX8 inhibitor project, dose response (AID 687032);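 note: cells exposed to compound for 96 h before reading; 0% = neutral control wells and -100% = 2 µM mitoxantrone kill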
# Conditions: CellTiterGlo ATP luminescence, 96 h; at 35 µM (top of the series)
row,SMILES,"activity change, negative = viability loss"
1,CCC1CN2CCc3cc(OC)c(OC)cc3C2CC1CC1NCCc2c1[nH]c1ccc(O)cc21 (stereo not given),inactive: 12.9%
2,O=C1NC2C(O)C(O)C(O)C(O)C2c2cc3c(c(O)c21)OCO3 (stereo not given),inactive: 4.53%
3,N#Cc1ccc2nc(-c3ccc(CN4CCC(n5c(=O)[nH]c6ccccc65)CC4)cc3)c(-c3ccccc3)nc2c1,inconclusive: 9.22%
4,C=Cc1cc(OC)c2c(c1)c(=O)oc1c2cc(OC)c2c(O)ccc(C3OC(C)C(O)C(C)(O)C3O)c21 (stereo not given),inconclusive: 8.78%
5,C[C@@H]1O[C@@H](O[C@@H]2C=C3CC[C@@H]4C(CC[C@]5(C)[C@@H](c6ccc(=O)oc6)CC[C@]45O)[C@@]3(C)CC2)[C@H](O)[C@H](O)[C@H]1O (stereo not given in full),inconclusive: -59.5%
6,O=c1[nH]c2ccccc2n1C1CCN(C(CCc2ccccc2)c2nnnn2-c2ccc3c(c2)OCCO3)CC1 (stereo not given),inconclusive: -2.91%
7,COc1ccc(-n2nnnc2C(CCc2ccccc2)N2CCC(n3c(=O)[nH]c4ccccc43)CC2)cc1 (stereo not given),inconclusive: 7.65%
8,CC1OC(OC2C=C3CCC4C(CCC5(C)C(c6ccc(=O)oc6)CCC45O)C3(C)CC2)C(O)C(OC2OC(CO)C(O)C(O)C2O)C1O (stereo not given),inconclusive: 1.31%
9,CC(N)C(=O)NC1C2C(=C(O)CC(O)C2O)C(=O)OC1(C)C(Cl)Cl (stereo not given),inconclusive: -0.726%
10,NC(=O)c1cn(C2OC(CO)C(O)C2O)c2ncnc(N)c12 (stereo not given),inactive: 8.39%
11,O=C(Cc1cccnc1)N1CCCCN2[C@H](C1)[C@H](c1ccc(C#CC3CCCC3)cc1)[C@@H]2CO,inactive: 17.6%
12,CC12CCC(O)CC1CCC1C2CCC2(C)C(C3=CC(=O)OC3)CCC12O (stereo not given),inconclusive: 7.5%
13,CC(=O)OC1CC(OC2C(O)CC(OC3C(O)CC(OC4CCC5(C)C(CCC6C5CCC5(C)C(C7=CC(=O)OC7)C(O)CC65O)C4)OC3C)OC2C)OC(C)C1OC1OC(CO)C(O)C(O)C1O (stereo not given),inconclusive: 3.29%
14,COC(=O)C1=C(c2ccc(F)cc2OCc2ccccc2)C[C@@H]2CC[C@H]1N2C(=O)NCc1ccc(C(F)(F)F)cc1,inconclusive: 7.32%
15,COC1=C(C)C(=O)C2=C(C1=O)C(CO)N1C(C#N)C3CC4C(C1C2N1CCOC41)N3C (stereo not given),inconclusive: 9.75%
